This is an account of results in paper PMC12136788.

This is one part of the list.

T1: UNK ZnF1-6 (called full-length) (human, UniProt Q9C0B0 30-357)
T1 sequence: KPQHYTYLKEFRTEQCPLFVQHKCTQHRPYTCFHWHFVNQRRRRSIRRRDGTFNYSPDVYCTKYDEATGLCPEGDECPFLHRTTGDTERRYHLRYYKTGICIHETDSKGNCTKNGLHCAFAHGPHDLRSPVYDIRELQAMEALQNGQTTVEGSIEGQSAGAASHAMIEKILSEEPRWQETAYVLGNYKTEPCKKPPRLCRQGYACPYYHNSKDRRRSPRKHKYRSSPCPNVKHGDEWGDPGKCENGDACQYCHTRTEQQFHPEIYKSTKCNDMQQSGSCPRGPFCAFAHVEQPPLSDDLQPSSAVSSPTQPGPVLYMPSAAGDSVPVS

B1: ENSG00000162521:stop:overlap|stop_codon|ENSG00000162521|stop_codon|NA|stop_codon (ssRNA)
RNA: GGGAGUUCUACAGUCCGACGAUCGUUCUGUAUCAGAAGACAAUAUCAUGCAAGUGUGGCAAAUGGAGUUAGUCCUUGACCACUAGUUUGAUGCCAUCUCCAUUUUGGGUGACCUGUUUCACCAGCAGGCCUGUUACUCUCCAUCAACAGAGGAUUGAGCAUCA
B2: chr2:85649053:85649154:+|3pUTR|ENSG00000168883|unk|total|mutant (ssRNA)
RNA: GGGAGUUCUACAGUCCGACGAUCUUCAGCAGGGCAGAACCCUUCUCCAGAUGUGUGUAACUUAUGUCUUGAGUAUCUGGGAGCCGUUGAAGAACAGAUAAUUCCUUCCAAACAUCAAGCCUUGGGAUUCUUGGAGCAAGCAGACAACAGAGGAUUGAGCAUCA
B3: chr1:39623434:39626506:-|three_prime_utr|ENSG00000163909|control|control|control (ssRNA)
RNA: GGGAGUUCUACAGUCCGACGAUCCCCCAGUCAGGAGCAAUGACUGACUGGCUGCAGCCUUCCCACGCCAAGAGGCUGGAACAUAGUGUCUGCCUCGCUUCCUGGAGAUAGUAACUGAGCAGGGGCUACAAAGAGGUCUCCUGGCAACAGAGGAUUGAGCAUCA
B4: ENSG00000180398:stop:overlap|stop_codon|ENSG00000180398|stop_codon|NA|stop_codon (ssRNA)
RNA: GGGAGUUCUACAGUCCGACGAUCAUGAUGACAAGAACAAUGAUGGAUACAUUGACUAUGCUGAAUUUGCAAAAUCACUGCAGUAGAUGUUAUUUGGCCAUCUCCUGGUUAUAUACAAAUGUGACCCGUGAUAAUGUGAUUGAACAACAGAGGAUUGAGCAUCA
B5: chr2:222942681:222942782:+|3pUTR|ENSG00000123983|msi1|total|mutant (ssRNA)
RNA: GGGAGUUCUACAGUCCGACGAUCAAAAUCCGUGUUUUUCCCCGUUUGCACUGAUGCGUGUAUGGAUGUGUGUGAGUCAGUGGCCGCUUAUUUAAAAAGCACCUUAUCCUUUCUCCCAUAACCUUUGUACACUAAAAAAUGAAACAACAGAGGAUUGAGCAUCA
B6: chr9:122240152:122240253:-|3pUTR|ENSG00000119446|msi1|total|mutant (ssRNA)
RNA: GGGAGUUCUACAGUCCGACGAUCCUUCUUGGAGUACCGAAUUCACCAUUUUAUCCGUAAGUCUUCAAAGGAUUAUGGUGGACCCGAACUUACACCGUGCAAAACCGUCUUCUAUUUUUAACCGGAACUCCGAAAAAACUCCGACAACAGAGGAUUGAGCAUCA
B7: chr12:48782793:48782894:-|CDS|ENSG00000174233|msi1|FALSE|unique (ssRNA)
RNA: GGGAGUUCUACAGUCCGACGAUCGCACUGUUGGCCUGUGCCGCCGCCCUGUUCGUGGGGCUCAUGGUGGUGUGUAACCGGCAUAGCUUCCGCCAGGACUCCAUGUGGGUGGUGAGCUACGUGGUGCUGGGCAUCCUGGCGGCACAACAGAGGAUUGAGCAUCA
B8: ENSG00000241258:stop:overlap|stop_codon|ENSG00000241258|stop_codon|NA|stop_codon (ssRNA)
RNA: GGGAGUUCUACAGUCCGACGAUCAGGCUGAGCAGAAGAAGAAUACAAACAGCAAUGUGGCAAUGGACGAAGAGGACCCAGCAUAGAAGAGCACAGCUGGCCCCGGCGUUUCAUGAAGUCAGAAGGCCUGGCAGCCAUUUCCUGCAACAGAGGAUUGAGCAUCA
B9: ENSG00000124766:be:win_3301|3pUTR|ENSG00000124766|bound_else_gene|NA|bound_elsewhere_windowed (ssRNA)
RNA: GGGAGUUCUACAGUCCGACGAUCAAUCUGCAGGCUUCUUAAAGUGACAGUAUCCCUUAACCUGCCACCAGUGUCCACCCUCCGGCCCCCGUCUUGUAAAAAGGGGAGGAGAAUUAGCCAAACACUGUAAGCUUUUAAGAAAAACAACAGAGGAUUGAGCAUCA
B10: chr17:67340809:67340863:-|CDS_3pUTR|ENSG00000197170|msi1_unk|total|mutant (ssRNA)
RNA: GGGAGUUCUACAGUCCGACGAUCACAAAACUACGCAUCUCACCGCCAAAGAGGAGAUGAUACAUAAUCUACAAUAAGGGUCUCCGUGCUUCCGAAAAAAGUUAAAAUUGGAAGUCAUUAAAAAAAGACUGUUAUAAUGGUGUACAACAGAGGAUUGAGCAUCA
B11: chr21:32314052:32314153:-|3pUTR|ENSG00000142207|msi1|FALSE|unique (ssRNA)
RNA: GGGAGUUCUACAGUCCGACGAUCCAUCUCAAAAAAAUAAAAAAAUAAAGUUUGUUUUUCUAUAAAAAGUCAUAACAAAGUAUUAGUAUGACUUUUUGAAUAAGUUAAUUUCUGCCAGUGUUUAAUUAUUUUAUUAAAGAAAAGCAACAGAGGAUUGAGCAUCA
B12: chr5:78476397:78476521:+|3pUTR|ENSG00000085365|msi1|total|mutant (ssRNA)
RNA: GGGAGUUCUACAGUCCGACGAUCAUAUAAGAAGUUUAUAUAAUAUGCAGUACAUUAUCCAAAAGAGAAGGCCGUUAAUGCAGCCGAAAGCCGUGGUAAUAAUUCCUUUUUAAAAAAAUUUCGGCCGUCAUACCGUAACAUUUUCAACAGAGGAUUGAGCAUCA
B13: ENSG00000067715:stop:overlap|stop_codon|ENSG00000067715|stop_codon|NA|stop_codon (ssRNA)
RNA: GGGAGUUCUACAGUCCGACGAUCAGGAGAAGUUUAUGAAUGAGUUGCAUAAAAUUCCAUUUCAAAGGAAAGAGAGUACCAAUUAGACAAGGGAAGAAGAUGAGAGACUGCCUGAACAGCAUCACUUUUGUAAACUGAGAGUUCCAACAGAGGAUUGAGCAUCA
B14: ENSG00000127483:stop:overlap|stop_codon|ENSG00000127483|stop_codon|NA|stop_codon (ssRNA)
RNA: GGGAGUUCUACAGUCCGACGAUCCCAAAAAGGAGAGAGCUGAUAGUAUUCAUUCCACUCUUUUCAUAAUUGGUCAGAACAGUUAGAAAUUGCUUUUAACUAUAGUCAUGCAUUGCUUAACAAUGGGUAUACAUUCUGAGAGAUCAACAGAGGAUUGAGCAUCA

The target in this test is T1, UNK ZnF1-6 (called full-length). In words: nsRBNS (natural sequence RNA bind-n-seq); RBNS binding buffer (assumed for nsRBNS): 25 mM Tris pH 7.5, 150 mM KCl, 3 mM MgCl2, 0.01% Triton X-100, 500 ug/ml BSA, 20 U/ml SUPERase-In, 4 C; UNK is unkempt and MSI1 is Musashi-1; names of the RNAs are library labels; protein concentration not given here; high values mean tight binding.
Consider B1, for which the binding signal came out at 0.501 enrichment R.

For B2, the binding signal came to 0.543 enrichment R.

In turn, B3 displayed a binding signal of 0.743 enrichment R.

The molecule B4 displayed a binding signal of 0.87 enrichment R.

Turning to B5, the binding signal came to 0.313 enrichment R.

In turn, B6 showed a binding signal of 0.267 enrichment R.

B7: the binding signal was 0.836 enrichment R.

As to B8, the binding signal came out at 0.646 enrichment R.

In the case of B9, the binding signal stood at 0.742 enrichment R.

Molecule B10 returned a binding signal of 0.259 enrichment R.

The molecule B11 registered a binding signal of 0.942 enrichment R.

B12 came in with a binding signal of 0.561 enrichment R.

Regarding B13, the binding signal is 0.713 enrichment R.

Turning to B14, the binding signal stood at 0.638 enrichment R.
